Data reported in publication PMC7774019.
Results are given in words; binding and its absence hold for the method and conditions named. Binding seen in cells or lysates may run through a third protein. Some binding calls cover weakened binding; strength is not graded here. Where a sequence is shown, tags or fusion partners need not be part of it.

Chains of the proteins cited; added tags and fusions are not shown.
UniProt Q7Z434: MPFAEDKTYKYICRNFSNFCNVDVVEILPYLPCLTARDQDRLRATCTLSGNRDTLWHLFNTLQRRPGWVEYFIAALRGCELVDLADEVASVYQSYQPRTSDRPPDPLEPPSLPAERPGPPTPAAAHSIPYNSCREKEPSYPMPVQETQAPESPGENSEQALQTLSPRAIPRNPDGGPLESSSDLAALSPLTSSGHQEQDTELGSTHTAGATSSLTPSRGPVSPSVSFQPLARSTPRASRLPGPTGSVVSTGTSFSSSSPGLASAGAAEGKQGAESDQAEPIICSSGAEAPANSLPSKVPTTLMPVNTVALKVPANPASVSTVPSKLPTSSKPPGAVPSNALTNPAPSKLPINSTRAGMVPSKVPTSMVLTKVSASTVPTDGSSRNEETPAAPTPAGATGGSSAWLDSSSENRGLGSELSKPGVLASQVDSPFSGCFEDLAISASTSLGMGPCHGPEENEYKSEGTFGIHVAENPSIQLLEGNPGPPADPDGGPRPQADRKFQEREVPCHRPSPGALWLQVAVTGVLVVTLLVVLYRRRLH

Legend:
[1] = biological target: T1, Flag-tagged EBV BFRF1 (Epstein-Barr virus (B95-8 strain)) (UniProt P03185); assay: co-IP; HEK293T co-transfected with tagged plasmids for 24 h, lysed in RIPA buffer; lysate with anti-Flag mAb or nonspecific mouse IgG at 4°C, protein A/G PLUS-Agarose, washed with PBS; western blot
T1 sequence: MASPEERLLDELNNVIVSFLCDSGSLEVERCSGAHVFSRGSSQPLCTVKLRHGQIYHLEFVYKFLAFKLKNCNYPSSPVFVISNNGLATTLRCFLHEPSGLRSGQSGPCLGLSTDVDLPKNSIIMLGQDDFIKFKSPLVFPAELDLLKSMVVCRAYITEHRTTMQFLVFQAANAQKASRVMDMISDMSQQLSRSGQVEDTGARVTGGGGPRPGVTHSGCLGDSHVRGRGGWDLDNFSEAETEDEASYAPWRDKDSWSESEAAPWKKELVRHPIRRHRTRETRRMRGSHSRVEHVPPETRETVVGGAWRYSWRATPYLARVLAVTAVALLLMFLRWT

[2] = biological target: T2, Flag-tagged IRF3 (UniProt Q14653); assay: as above
T2 sequence: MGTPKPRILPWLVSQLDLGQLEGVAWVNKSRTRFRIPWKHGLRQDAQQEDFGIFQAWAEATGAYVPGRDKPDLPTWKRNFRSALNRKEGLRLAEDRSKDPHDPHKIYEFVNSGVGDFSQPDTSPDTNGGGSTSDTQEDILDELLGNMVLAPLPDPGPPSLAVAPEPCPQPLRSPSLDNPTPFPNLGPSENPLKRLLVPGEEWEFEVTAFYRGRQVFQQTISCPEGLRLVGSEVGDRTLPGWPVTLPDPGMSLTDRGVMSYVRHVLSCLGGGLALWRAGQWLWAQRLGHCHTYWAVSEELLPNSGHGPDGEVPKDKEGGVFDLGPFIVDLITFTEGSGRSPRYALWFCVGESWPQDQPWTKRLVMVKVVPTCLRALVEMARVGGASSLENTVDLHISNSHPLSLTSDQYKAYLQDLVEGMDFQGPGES

[3] = biological target: T1, Flag-tagged EBV BFRF1 (Epstein-Barr virus (B95-8 strain)); assay: co-IP; HEK293T transfected with BFRF1-Flag alone, lysed in RIPA buffer; anti-Flag mAb or nonspecific mouse IgG, protein A/G PLUS-Agarose; western blot for endogenous IKKi
[4] = biological target: T3, Flag-tagged RIG-I (UniProt O95786); assay: co-IP; HEK293T co-transfected with tagged plasmids for 24 h, lysed in RIPA buffer; lysate with anti-Flag mAb or nonspecific mouse IgG at 4°C, protein A/G PLUS-Agarose, washed with PBS; western blot
T3 sequence: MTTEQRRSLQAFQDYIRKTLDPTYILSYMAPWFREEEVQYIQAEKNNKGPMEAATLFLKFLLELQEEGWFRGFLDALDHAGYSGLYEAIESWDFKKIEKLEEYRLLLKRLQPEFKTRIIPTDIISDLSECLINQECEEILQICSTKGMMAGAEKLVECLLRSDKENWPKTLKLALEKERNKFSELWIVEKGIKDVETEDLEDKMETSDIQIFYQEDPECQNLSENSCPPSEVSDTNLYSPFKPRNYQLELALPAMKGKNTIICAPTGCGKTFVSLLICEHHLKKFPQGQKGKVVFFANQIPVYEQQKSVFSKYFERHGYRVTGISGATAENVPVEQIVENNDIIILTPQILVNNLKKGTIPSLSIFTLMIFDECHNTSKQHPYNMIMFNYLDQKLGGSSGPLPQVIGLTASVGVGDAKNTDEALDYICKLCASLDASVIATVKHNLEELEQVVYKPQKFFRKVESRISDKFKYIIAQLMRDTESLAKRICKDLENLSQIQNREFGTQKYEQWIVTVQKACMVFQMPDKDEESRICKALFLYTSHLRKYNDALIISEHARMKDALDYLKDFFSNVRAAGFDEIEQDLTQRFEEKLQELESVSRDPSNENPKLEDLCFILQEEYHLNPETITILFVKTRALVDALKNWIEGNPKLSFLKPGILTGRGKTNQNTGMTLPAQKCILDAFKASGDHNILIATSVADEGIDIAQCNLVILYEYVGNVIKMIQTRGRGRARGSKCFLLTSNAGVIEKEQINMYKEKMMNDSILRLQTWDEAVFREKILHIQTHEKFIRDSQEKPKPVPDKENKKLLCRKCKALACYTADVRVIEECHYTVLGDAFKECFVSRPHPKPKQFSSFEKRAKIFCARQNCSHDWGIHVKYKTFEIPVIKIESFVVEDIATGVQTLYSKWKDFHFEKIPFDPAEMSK

[5] = biological target: Flag-tagged IPS-1 (IFN promoter stimulator 1) (UniProt Q7Z434); assay: as above

B1: Myc-tagged IKKi (inducible IκB kinase) (enzyme, UniProt Q14164 1-716)
chain: MQSTANYLWHTDDLLGQGATASVYKARNKKSGELVAVKVFNTTSYLRPREVQVREFEVLRKLNHQNIVKLFAVEETGGSRQKVLVMEYCSSGSLLSVLESPENAFGLPEDEFLVVLRCVVAGMNHLRENGIVHRDIKPGNIMRLVGEEGQSIYKLTDFGAARELDDDEKFVSVYGTEEYLHPDMYERAVLRKPQQKAFGVTVDLWSIGVTLYHAATGSLPFIPFGGPRRNKEIMYRITTEKPAGAIAGAQRRENGPLEWSYTLPITCQLSLGLQSQLVPILANILEVEQAKCWGFDQFFAETSDILQRVVVHVFSLSQAVLHHIYIHAHNTIAIFQEAVHKQTSVAPRHQEYLFEGHLCVLEPSVSAQHIAHTTASSPLTLFSTAIPKGLAFRDPALDVPKFVPKVDLQADYNTAKGVLGAGYQALRLARALLDGQELMFRGLHWVMEVLQATCRRTLEVARTSLLYLSSSLGTERFSSVAGTPEIQELKAAAELRSRLRTLAEVLSRCSQNITETQESLSSLNRELVKSRDQVHEDRSIQQIQCCLDKMNFIYKQFKKSRMRPGLGYNEEQIHKLDKVNFSHLAKRLLQVFQEECVQKYQASLVTHGKRMRVVHETRNHLRLVGCSVAACNTEAQGVQESLSKLLEELSHQLLQDRAKGAQASPPPIAPYPSPTRKDLLLHMQELCEGMKLLASDLLDNNRIIERLNRVPAPPDV
- binding [1]: binds

B2: HA-tagged IKKi (enzyme, UniProt Q14164 1-716)
chain: MQSTANYLWHTDDLLGQGATASVYKARNKKSGELVAVKVFNTTSYLRPREVQVREFEVLRKLNHQNIVKLFAVEETGGSRQKVLVMEYCSSGSLLSVLESPENAFGLPEDEFLVVLRCVVAGMNHLRENGIVHRDIKPGNIMRLVGEEGQSIYKLTDFGAARELDDDEKFVSVYGTEEYLHPDMYERAVLRKPQQKAFGVTVDLWSIGVTLYHAATGSLPFIPFGGPRRNKEIMYRITTEKPAGAIAGAQRRENGPLEWSYTLPITCQLSLGLQSQLVPILANILEVEQAKCWGFDQFFAETSDILQRVVVHVFSLSQAVLHHIYIHAHNTIAIFQEAVHKQTSVAPRHQEYLFEGHLCVLEPSVSAQHIAHTTASSPLTLFSTAIPKGLAFRDPALDVPKFVPKVDLQADYNTAKGVLGAGYQALRLARALLDGQELMFRGLHWVMEVLQATCRRTLEVARTSLLYLSSSLGTERFSSVAGTPEIQELKAAAELRSRLRTLAEVLSRCSQNITETQESLSSLNRELVKSRDQVHEDRSIQQIQCCLDKMNFIYKQFKKSRMRPGLGYNEEQIHKLDKVNFSHLAKRLLQVFQEECVQKYQASLVTHGKRMRVVHETRNHLRLVGCSVAACNTEAQGVQESLSKLLEELSHQLLQDRAKGAQASPPPIAPYPSPTRKDLLLHMQELCEGMKLLASDLLDNNRIIERLNRVPAPPDV
- binding [2]: binds

B3: endogenous IKKi (enzyme, UniProt Q14164 1-716)
chain: MQSTANYLWHTDDLLGQGATASVYKARNKKSGELVAVKVFNTTSYLRPREVQVREFEVLRKLNHQNIVKLFAVEETGGSRQKVLVMEYCSSGSLLSVLESPENAFGLPEDEFLVVLRCVVAGMNHLRENGIVHRDIKPGNIMRLVGEEGQSIYKLTDFGAARELDDDEKFVSVYGTEEYLHPDMYERAVLRKPQQKAFGVTVDLWSIGVTLYHAATGSLPFIPFGGPRRNKEIMYRITTEKPAGAIAGAQRRENGPLEWSYTLPITCQLSLGLQSQLVPILANILEVEQAKCWGFDQFFAETSDILQRVVVHVFSLSQAVLHHIYIHAHNTIAIFQEAVHKQTSVAPRHQEYLFEGHLCVLEPSVSAQHIAHTTASSPLTLFSTAIPKGLAFRDPALDVPKFVPKVDLQADYNTAKGVLGAGYQALRLARALLDGQELMFRGLHWVMEVLQATCRRTLEVARTSLLYLSSSLGTERFSSVAGTPEIQELKAAAELRSRLRTLAEVLSRCSQNITETQESLSSLNRELVKSRDQVHEDRSIQQIQCCLDKMNFIYKQFKKSRMRPGLGYNEEQIHKLDKVNFSHLAKRLLQVFQEECVQKYQASLVTHGKRMRVVHETRNHLRLVGCSVAACNTEAQGVQESLSKLLEELSHQLLQDRAKGAQASPPPIAPYPSPTRKDLLLHMQELCEGMKLLASDLLDNNRIIERLNRVPAPPDV
- binding [3]: binds

B4: Myc-tagged EBV BFRF1 (protein, UniProt P03185 1-336)
chain: MASPEERLLDELNNVIVSFLCDSGSLEVERCSGAHVFSRGSSQPLCTVKLRHGQIYHLEFVYKFLAFKLKNCNYPSSPVFVISNNGLATTLRCFLHEPSGLRSGQSGPCLGLSTDVDLPKNSIIMLGQDDFIKFKSPLVFPAELDLLKSMVVCRAYITEHRTTMQFLVFQAANAQKASRVMDMISDMSQQLSRSGQVEDTGARVTGGGGPRPGVTHSGCLGDSHVRGRGGWDLDNFSEAETEDEASYAPWRDKDSWSESEAAPWKKELVRHPIRRHRTRETRRMRGSHSRVEHVPPETRETVVGGAWRYSWRATPYLARVLAVTAVALLLMFLRWT
- binding [2]: no binding
- binding [4]: no binding
- binding [5]: no binding
